In PubChem BioAssay AID1346428 (National Center for Advancing Translational Sciences (NCATS), 2018):
“And” between values parts separate entries of the source, which are not always exact repeats. Equal values may be shown once. Hit rate of the full screen: of about 48,000 compounds, about 1,200 (2.5%) were called active. Not shown: some 2% with an inconclusive outcome.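 Rule for the calls: active = activation of at least 60% and not above a set upper limit (about 1 call in 100 departs from these limits); inconclusive = activation of 40% to 60%, or above that upper limit; inactive = activation under 40%.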 This is one part of the list.

Each compound was assayed against Probable G-protein coupled receptor 32 (Homo sapiens) (UniProt O75388) (assay: qHTS for Agonists of Human Resolvin D1 Receptor DRV1). Conditions: CHO-K1 GPR32 beta-arrestin PathHunter luminescence, 90 min; at 76.9 µM; active compounds read high; zero percent set by DMSO-only wells.
Sequence of UniProt O75388 (O75388 whole entry, looked up, the tested form may be a part): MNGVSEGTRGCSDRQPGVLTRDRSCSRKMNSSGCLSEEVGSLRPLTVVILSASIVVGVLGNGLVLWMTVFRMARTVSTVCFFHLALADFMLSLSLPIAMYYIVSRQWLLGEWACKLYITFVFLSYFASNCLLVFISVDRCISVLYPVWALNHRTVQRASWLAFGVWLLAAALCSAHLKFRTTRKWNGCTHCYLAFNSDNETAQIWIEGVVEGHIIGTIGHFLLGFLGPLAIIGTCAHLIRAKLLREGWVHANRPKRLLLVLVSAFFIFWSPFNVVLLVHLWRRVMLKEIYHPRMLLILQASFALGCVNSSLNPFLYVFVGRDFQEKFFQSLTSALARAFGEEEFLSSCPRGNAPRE
Outline: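 PathHunter enzyme-fragment complementation, CHO-K1 GPR32 stable line; 2,500 cells/well, overnight attach; cpd 90 min 37 °C 5% CO2; detection reagent 1 h RT; chemiluminescence. DMSO = EC0.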
Note: 0% is about no effect.

activation, inactive:
CC(C)c1ccc(NS(=O)(=O)c2cc(Br)cc3c2N(C(=O)C2CC2)CC3)cc1 2.84%
CCOc1ccc(NC(=O)C(=O)NCCc2csc(-c3ccc(C(F)(F)F)cc3)n2)cc1 -14.7%
NNC(=O)CP(=O)(c1ccccc1)c1ccccc1 -1.74%
COc1ccc(CCNC(=O)c2ccc3c(c2)N(Cc2ccccc2)CCS3)cc1OC -4.63%
Cc1ccc(C(=O)N2CCn3c4c(c5cc(C)ccc53)CCCC42)cc1 (configuration not stated) -29.9%
COC(=O)c1ccc(NC(=O)CN(C)S(=O)(=O)c2ccc(Br)s2)cc1 27.4%
COc1cccc(-n2c(SCc3ccc(F)cc3)nc3c([nH]c4ccccc43)c2=O)c1 -46.9%
Cc1ccc2nc(-c3ccc(Cl)s3)c(Nc3ccc4c(c3)OCCO4)n2c1 -30.1%
Cc1nn2c(C)c(C(=O)NCc3ccc(OC(C)C)cc3)cnc2c1-c1ccc(F)cc1 -2.32%
COc1ccc(Cn2ccnc2SCC(=O)Nc2nnc(C)s2)cc1 -16.3%
Cc1ccc(CNC(=O)c2ccc(N3CCCC3)c(NC(=O)Nc3ccc(F)c(Cl)c3)c2)cc1 -13.5%
Cc1ccc2c(c1)-c1c(c(C(=O)N3CCN(c4cc(C)ccc4C)CC3)nn1C)CS2 -33.1%
CCn1c(=O)cc(OCC(=O)N2CCN(c3cccc(C)c3C)CC2)c2ccccc21 2.25%
Cc1cccc(NC(=O)CN2C(=O)C(c3ccc(F)cc3)=NC23CCCCCC3)c1 -5.05%
COc1cccc(CNC(=O)CN2C(=O)COc3ccc(S(=O)(=O)N4CCOCC4)cc32)c1 -17.7%
CCN(CCCNC(=O)c1nn(-c2ccc(C)cc2)c(=O)c2c1c1ccccc1n2C)c1cccc(C)c1 1.01%
Cc1cc(C)c(NC(=O)Cn2c(=O)n(Cc3ccc(C(=O)NCc4ccc5c(c4)OCO5)cc3)c(=O)c3ccccc32)c(C)c1 -9.6%
Cc1ccc(CNC(=O)C(C)n2nc(C)c3sc4ccccc4c3c2=O)cc1 (configuration not stated) -24.2%
CNCCNS(=O)(=O)c1cccc2cnccc12 -11.2%
COc1ccc(NC(=O)Cn2c(=O)c3ccccc3n3nncc23)c(OC)c1 5.95%
CC(=O)c1c(C)oc2c1cc(NS(=O)(=O)c1ccc(C(C)(C)C)cc1)c1ccccc12 25.7%
COC(=O)c1ccccc1NC(=O)CN1C(=O)COc2ccc(Cl)cc21 -2.05%
COc1ccc(NC(=O)c2cc(S(=O)(=O)N3CCCC3)ccc2OC)cc1 -17%
CCNC(=O)[C@H]1O[C@@H](n2cnc3c(N)nc(NCCc4ccc(CCC(=O)O)cc4)nc32)[C@H](O)[C@@H]1O 0.779%
COc1cccc(C(=O)Oc2c(Sc3ccc(C)cc3)c(C)nn2C(C)(C)C)c1OC -7.99%
CC(C)Cc1nn2c(=O)cc(COC(=O)c3ccc(NC(=O)C4CCCCC4)cc3)nc2s1 -10%
CCOc1ccccc1NC(=O)c1ccc(F)c(S(=O)(=O)N2CCN(c3ccc(F)cc3)CC2)c1 -8%
CCOc1ccc(C(=O)NCCSc2c(C)[nH]c3ccccc23)cc1OCC -10.3%
CCOc1ccc(NC(=O)c2cc(C)nc3c2c(C)nn3-c2ccc(C)cc2)cc1 -11%
Cc1cccc(C(=O)N2CCc3cc(CNC(=O)CSc4ccccc4)ccc32)c1 -1.87%
Cc1cccc(C)c1NC(=O)c1ccccc1C(=O)O -16.6%
CCOc1ccc(C(=O)NCC(c2cccs2)S(=O)(=O)c2ccccc2)cc1 (configuration not stated) 21.5%
COc1ccc(Nc2nc3ccc(Cl)cc3nc2-n2nc(C)cc2C)cc1 -20.2%
Cc1ccc2cccc(NC(=O)c3cccc4c(Br)cccc34)c2n1 -5.52%
COc1cccc(CNS(=O)(=O)c2ccc3c(c2)CC(C)N3C(=O)C2CCC2)c1 (configuration not stated) 10.9%
O=C(NCc1cccc(Cl)c1)c1cc2c(s1)-c1ccccc1SC2 -11%
O=C(Cn1c(=O)n(-c2ccc(Cl)cc2)c(=O)c2c3c(sc21)CCCCC3)Nc1cccc(Cl)c1 -4.09%
COc1ccc(C)cc1NC(=O)C(=O)NCC(c1cccnc1)N1CCN(c2ccccc2F)CC1 (configuration not stated) -36.4%
Cc1cc(C)c2nc(N3CCCC(C(=O)NCc4ccccc4F)C3)sc2c1 (configuration not stated) -0.0112%
COc1ccc(N2CCN(C(=O)c3ccc4c(c3)N(Cc3cccc(Cl)c3)C(=O)c3ccccc3S4(=O)=O)CC2)cc1 -24.5%
CCn1c(=O)n(-c2ccc3c(c2)OCO3)c2nc(-c3cccc(OC)c3OC)nc(C(N)=O)c21 -1.99%
CCCn1cc(S(=O)(=O)c2ccc(C)c(C)c2)c(=O)c2cc(F)c(N3CCC(C)CC3)cc21 1.84%
CCOc1ccccc1N(C)C(=O)c1cc2c(s1)-c1ccccc1OC2 -34.1%
CCc1ccccc1NC(=O)Cn1c(=O)n(-c2cccc(C)c2)c(=O)c2c1c1cc(OC)ccc1n2C -7.92%
CC(C)OCCCNC(=O)Cc1ccc(NC(=O)N2CCCCc3ccccc32)cc1 -6.94%
CCOC(=O)CC(NC(=O)c1cc2c(=O)n3cccc(C)c3nc2s1)c1ccc(OCC)c(OC)c1 (configuration not stated) -14.9%
CCCCc1nc(SCC(=O)Nc2ccc(S(N)(=O)=O)cc2)n[nH]1 2.2%
Cc1ccc(NC(=O)Cn2c(=O)n(CC(=O)NCCc3ccccc3)c(=O)c3ccccc32)cc1C 8.13%
Cc1ccc(S(=O)(=O)c2cn(CC(=O)Nc3ccc(F)cc3)c3cc4c(cc3c2=O)OCO4)cc1 -9.94%
COc1ccc(-c2noc(CCC(=O)Nc3cccc(C)c3C)n2)cc1OC 6.73%
COc1cccc(NC(=O)C2CCN(S(=O)(=O)c3c(C)noc3C)CC2)c1 -4.7%
Cc1ccc(C(=O)COC(=O)c2cc(-c3cccs3)nc3ccccc23)cc1 -1.25%
CCc1cccc(NC(=O)Nc2cn(C)c(=O)c3ccccc23)c1 -58.9%
COc1ccc(NC(=O)CN2CCN(Cc3ccccc3Cl)S2(=O)=O)cc1Cl 30.5%
CC(C)NC(=O)c1ccc2c(c1)N(Cc1cccc(Cl)c1)C(=O)c1ccccc1S2=O (configuration not stated) -10.3%
CCc1ccccc1NS(=O)(=O)c1ccc2c(c1)CCCN2C(=O)C1CCC1 -8.83%
Cc1nn2c(=O)cc(COC(=O)c3ccccc3NC(=O)c3cccs3)nc2s1 -10.4%
COC(=O)c1sc2c(c1C)c(=O)n(-c1ccccc1)c(=O)n2CC(=O)Nc1cccc(C)c1 -13.9%
CCCN1C(=O)C(O)(CC(=O)c2ccc(C(C)C)cc2)c2ccccc21 (configuration not stated) -19.3%
O=c1[nH]sc2cc(Cl)ccc12 31.9%
CCc1cccc(NC(=O)CCc2c(C)nc3c(-c4ccccc4)c(C)nn3c2C)c1 2.6%
CCN(C(=O)Cn1c(=O)oc2cc(S(=O)(=O)N3CCCCC3)ccc21)c1ccccc1 -4.82%
COc1cc(OC)c(NC(=O)N2CCC(CN3CCOCC3)CC2)cc1Cl -12.5%
CN1CCN(Cc2c(O)ccc3cc(-c4ccc(Cl)cc4)c(=O)oc23)CC1 -1.66%
CCOc1cc(CNC(=O)C2CCN(c3nc4ccccc4[nH]3)CC2)cc(OCC)c1OCC -8.33%
COc1cccc(CC(=O)Nc2ccc(-c3nc4ccccc4s3)cc2Cl)c1 -6.47%
Cc1cc(C)cc(N2CCn3c2nc2c3c(=O)n(C/C=C/c3ccccc3)c(=O)n2C)c1 -0.0641%
CCN(CC)CCCC(C)Nc1ccnc2cc(Cl)ccc12 (configuration not stated) -8.85% and 15.2%
Cc1c(C)c2cc3c(c(C)c2oc1=O)OCN(CCc1ccccc1)C3 -6.25%
COc1cccc(CNC(=O)c2c(C)oc3ncnc(N4CCOCC4)c23)c1 2.61%
COc1ccc(N2CCN(C(=O)C3Cc4ccccc4N3C(C)=O)CC2)cc1 (configuration not stated) 1.96%
CS(=O)(=O)c1ccc([C@@H](O)[C@@H](CF)NC(=O)C(Cl)Cl)cc1 -15.8%
Cc1ccc(C)c(NC(=O)CCOc2ccccc2)c1 -16.1%
Cc1c(Cl)cccc1NC(=O)CSc1ccc(-c2ccccn2)nn1 -10.8%
Cc1ccc2nc(-c3ccc(F)cc3)c(NC(C)(C)CC(C)(C)C)n2c1 -5.69%
CCOC(=O)CC(NC(=O)c1cc2cc(Br)cc(OC)c2oc1=O)c1ccc(OC)cc1 (configuration not stated) -14.1%
CCOC(=O)C(=O)NCC(c1cccnc1)N1CCN(c2ccccc2)CC1 (configuration not stated) -7.49%
COc1ccc(N2CC(NC(=O)COc3ccc(F)cc3)CC2=O)cc1OC (configuration not stated) -7.29%
CCOCCn1c(C2CCN(CCc3ccc(C(C)(C)C(=O)O)cc3)CC2)nc2ccccc21 -5.31%
Cn1cnc2c(=O)oc3ccc(S(=O)(=O)N4CCN(c5cccc(C(F)(F)F)c5)CC4)cc3c21 -7.69%
CC(C)(C)OC(=O)N1CCC(c2c(C(=O)Nc3ccc4c(c3)OCCO4)cnn2-c2ccc(F)cc2F)CC1 -25.5%
COc1ccc(S(=O)(=O)NCCc2nnc3ccc(SCC(=O)Nc4cc(C)cc(C)c4)nn23)cc1 -21.9%
